Data taken from PubChem BioAssay AID686979 (National Center for Advancing Translational Sciences (NCATS), 2013).
The whole screen tested about 420,000 compounds, of which about 50,000 (12%) were called active. Inconclusive results, whose numbers are uncertain, are shown with a selection of clear calls. Calls follow the shape of the dose curve; as a rule, active = well fitted inhibition curve with a large enough effect; inconclusive = small, poorly fitted or top-dose-only effect; inactive = flat fitted curve, though single readings scatter. Potencies of inconclusive entries are left out as doubtful fits.

test: qHTS for Inhibitors of human tyrosyl-DNA phosphodiesterase 1 (TDP1): qHTS in cells in presence of CPT; conditions: chicken DT40 Tdp1-/-;hTDP1 cells + 20 nM CPT, ATP luminescence, 48 h; activity change, negative = growth inhibition: at 46.2 µM (top of the series) unless noted; also: nearly all actives have a fitted effect of over 55% in size
Procedure, shortened: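 Chicken DT40 Tdp1-/- cells complemented with human TDP1, 400 cells/well, exposed to compounds plus 20 nM camptothecin for at least 48 h at 37 C; viability read as ATP content by CellTiter-Glo luminescence.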
% is scaled to controls: 0 for no effect and ±100 for the full control effect; potency is read from the fitted curve at half-maximal effect; tags tell the direction and shape of the fitted curve.

SMILES	Potency	activity change, negative = growth inhibition
COc1ccc(OC)c(NC(=S)NCCSc2ccc(C)cc2)c1	inconclusive [inhibitor, single point]	
O=C(CSc1nnc(-c2cc3ccccc3cc2O)n1Cc1ccco1)N1CCc2ccccc2C1	inconclusive [inhibitor, single point]	
COc1cccc(CNC(=O)[C@@H]2CCCN2C(=O)[C@@H]2CCCN2S(=O)(=O)c2ccc(OC)c(C)c2)c1	inconclusive [inhibitor, partial curve, poor fit]	
O=C(CNCC1CCCO1)NCc1ccco1 (stereo unspecified)	inactive	
CCC(c1nnnn1C(C)(C)CC)N(CCCO)Cc1cc2cc(C)cc(C)c2[nH]c1=O (stereo unspecified)	inconclusive [inhibitor, single point]	
COc1ccc2nc(NC(=O)CSCC(=O)Nc3cc(C)on3)sc2c1	inactive	
CC(Oc1cccc(Cl)c1)C(=O)Nc1cc(S(=O)(=O)N2CCCCC2)ccc1N1CCOCC1 (stereo unspecified)	inconclusive [inhibitor, single point]	
CC(=O)Nc1cc(-c2ccccc2)ccc1O	active: 20.6 µM	
C#CCOC(=O)c1ccccc1C(=O)n1nnc2ccccc21	inconclusive [inhibitor, single point]	
CCNc1ncc2nc(-c3cccs3)c(=O)n(CCc3ccccc3)c2n1	inconclusive [inhibitor, single point]	
COc1cc(OC)cc(-c2c(C#Cc3ccsc3)c3cc(-c4ccc5cc[nH]c5c4)ccc3n2C)c1	inconclusive [inhibitor, single point]	
CCOc1ccc(CN2CCN(C(=O)c3cccc4ccccc34)CC2)cc1	inconclusive [inhibitor, single point]	
CC(=O)c1cc(-c2ccccc2)n(CCC(=O)NCc2ccc(C)cc2)c1C	inconclusive [inhibitor, single point]	
CC1CCN(C(=S)NC(=O)c2ccccc2Br)CC1	inconclusive [inhibitor, single point]	
CCc1ccc(NC(=O)Cn2c(=O)n(CCCCC(=O)NCc3ccc4c(c3)OCO4)c(=O)c3ccccc32)cc1	inconclusive [inhibitor, partial curve, poor fit]	
COC(=O)C1=CN(Cc2ccc(OC)c(OC)c2)C=C(C(=O)OC)C1c1cccc(OC)c1OC	inconclusive [inhibitor, single point]	
COc1cc(/C=C2\CC/C(=C\c3cc(OC)c(O)c(OC)c3)C2=O)cc(OC)c1O	active: 6.51 µM	
Cc1ccc(C)c(Cn2nnc3c(=O)[nH]c(C(=O)Nc4ccc(F)cc4)nc32)c1	inconclusive [inhibitor, single point]	
CC(NCc1ccccc1Cl)C(=O)Nc1ccc(S(=O)(=O)N2CCCC2)cc1 (stereo unspecified)	inconclusive [inhibitor, single point]	
CC1(c2nc3ccccc3[nH]2)c2ccccc2C(=O)N1Cc1ccccc1 (stereo unspecified)	inconclusive [inhibitor, single point]	
Cc1occc1-c1nnc(SCCCC(=O)c2ccc(F)cc2)n1C	active: 18.4 µM	
COc1ccc(Nc2cccc3ccccc23)cc1	inconclusive [inhibitor, partial curve]	

SMILES	Potency	activity change, negative = growth inhibition
CC1CCCC(C)N1C(=O)COC(=O)COc1ccccc1C#N (stereo unspecified)	inactive	
CCOc1ccccc1Nc1sc(C(=O)c2ccccc2)c(N)c1C(=O)Nc1ccccc1	active: 10.3 µM	
Cc1cc(SCNC(=O)c2ccccc2)ncn1	inconclusive [inhibitor, single point]	
CCC1CCCCN1C(=O)CCCc1ccccc1 (stereo unspecified)	inconclusive [inhibitor, single point]	
O=C(NCc1nnc2n1CCN(Cc1ccc(C(F)(F)F)cc1)CC2)c1cccc(F)c1		inactive: 18.4% [at 9.04 µM]
CCN1C(=O)c2ccccc2Sc2ccc(C(=O)O)cc21	inactive	
CN(Cc1ccc(Cl)cc1)C(=O)c1ccccc1SCC(=O)N1CCCC1	inconclusive [inhibitor, single point]	
O=C1/C(=C\c2ccc(O)c(O)c2)C(c2ccccc2)=NN1c1ccccc1	inconclusive [inhibitor, single point]	
COc1cccc(-c2ccc3ncnc(NCc4ccccc4)c3c2)c1	inconclusive [inhibitor, partial curve, poor fit]	
COC(=O)[C@]1(CC(C)C)N[C@H](c2ccc(-c3ccc4c(c3)OCO4)cc2)[C@@H]2C(=O)N(C)C(=O)[C@@H]21	inconclusive [inhibitor, single point]	
COc1ccc(CCNC(=O)COC(=O)Cc2cccc(F)c2)cc1	inactive	
O=[N+]([O-])c1ccc2oc(C3CCCCC3)nc2c1	inconclusive [inhibitor, single point]	
CN1/C(=C/C(=S)NC(=O)C2(C)CC2(Cl)Cl)C(C)(C)c2ccccc21 (stereo unspecified)	inconclusive [inhibitor, single point]	
CCN1C(=NCc2cc(OC)c(OC)c(OC)c2)N[C@@H](c2ccccc2)C(C(=O)OC)=C1C	inconclusive [inhibitor, single point]	
COc1ccc(-c2nn3c(=O)cc(CN4CCN(C(=O)c5ccc(OC)c(OC)c5)CC4)nc3s2)cc1	inconclusive [inhibitor, single point]	
CC(C)(C)n1nnnc1C(c1cc2ccccc2o1)N(CCC#N)Cc1ccccc1 (stereo unspecified)	inconclusive [inhibitor, single point]	
O=[N+]([O-])c1ccccc1C=NNC(=S)NN=Cc1ccccc1[N+](=O)[O-]	active: 6.51 µM	
COc1cccc(C2=CC(=O)C[C@H](c3ccc(OC)c(OC)c3)C2)c1	inconclusive [inhibitor, single point]	
CCOc1ccccc1CNc1ccc2cc(S(=O)(=O)N3CCC(C)CC3)ccc2n1	inconclusive [inhibitor, single point]	
Cc1cccc(Nc2nnc(SCC(=O)c3ccc(Br)s3)s2)c1C	inconclusive [inhibitor, single point]	
CS(=O)(=O)c1ccc(C(=O)Nc2ccc(S(=O)(=O)N3CCCCC3)cc2)cc1	inconclusive [inhibitor, single point]	
Cc1cnc2ccccc2c1/C=C/c1ccc(N(C)C)cc1	inconclusive [inhibitor, single point]	

SMILES	Potency	activity change, negative = growth inhibition
CCn1c(SCC(N)=O)nnc1-c1cc2c(C)nn(-c3ccccc3)c2s1	inconclusive [inhibitor, single point]	
COc1ccc(CCNC(=O)CN2C(=O)c3ccccc3C2=O)cc1	inactive	
CC(C)CN(C(=O)COC(=O)CCC(=O)c1ccc(F)cc1)c1c(N)n(Cc2ccccc2)c(=O)[nH]c1=O	inactive	
CCCOc1cccc(C(=O)N(Cc2ccccc2)C2CCS(=O)(=O)C2)c1 (stereo unspecified)	inactive	
CC(C)(C)c1ccc(C(=O)Nc2ccc3c(c2)CCCN3C(=O)c2cccs2)cc1	active: 5.8 µM	
COc1cc(/C=C/C(=O)OCC(=O)Nc2cc(S(=O)(=O)N3CCCCC3)ccc2C)ccc1O	inconclusive [inhibitor, single point]	
Cc1cc(-c2ccc3ccccc3c2)n2ncnc2n1	inactive	
CCOc1ccc(S(=O)(=O)N2CCCC(C(=O)Nc3cccc(C)c3)C2)cc1 (stereo unspecified)	inconclusive [inhibitor, partial curve, poor fit]	
COc1ccc(OC(C)C(=O)Nc2cccc([N+](=O)[O-])c2)cc1 (stereo unspecified)	inconclusive [inhibitor, single point]	
C#CCNC(=O)C[C@@H]1C[C@@]2(C(=O)OC)CC(C)(C)CC=C2N(CCCCCCCC)C1=O	inconclusive [inhibitor, single point]	
COc1ccc(S(=O)(=O)N2CCCCC2)cc1NS(=O)(=O)c1cc(Cl)ccc1Cl	inactive	
Cc1ccc(-n2c(SCC(=O)N3CCCc4ccccc43)nnc2-c2cccnc2)c(C)c1	inconclusive [inhibitor, single point]	
Cc1cc(NC(=O)CC#N)n(-c2nc3ccccc3[nH]2)n1	inconclusive [inhibitor, single point]	
C=CCn1c(=O)n(C)c2c(=O)n(C)c(=O)n(C)c21	inactive	
COC(=O)c1cccc(-c2cc(Cl)c3c(c2)CC(CNC(=O)c2cccnc2)O3)c1 (stereo unspecified)		inactive: 16.6% [at 9.04 µM]
Cc1nc(-c2ccc(S(=O)(=O)Nc3ccc(C#N)cc3)cc2)co1	inactive	
COC(=O)c1ccc(NC(=O)CSc2nc(C)cc(C)c2C(=O)Nc2ccccc2)cc1	inconclusive [inhibitor, single point]	
Cn1c(NCCCN2CCOCC2)nc2c1c(=O)n(Cc1ccc(Cl)c(Cl)c1)c(=O)n2C	inconclusive [inhibitor, single point]	
C=CCN1C(=NC(=O)CC)SC2CS(=O)(=O)CC21 (stereo unspecified)	inactive	
O=C(N/N=C/c1ccc[nH]1)c1cccc(Br)c1	inconclusive [inhibitor, single point]	
O=c1oc2ccc(Cl)cc2cc1-c1nnc(Nc2cccc(C(F)(F)F)c2)s1	inconclusive [inhibitor, full curve, poor fit]	
CC(OC(=O)c1ccccc1C(=O)N(C)C1CCCCC1)C(=O)NC1(C#N)CCCCC1 (stereo unspecified)	inconclusive [inhibitor, partial curve]	
